In PMC12435690, “KYLO-0603, a novel liver-targeting, thyroid hormone receptor-β agonist for the inhibition of MASH progression” (PLOS One, 2025):

How the values were obtained:
[1] = [14C] Kylo-0603 excretion and tissue distribution in SD rats; assay type: in vivo; details: for Total Radioactivity, Fat / Total Radioactivity, Heart / Total Radioactivity, Kidney / Total Radioactivity, Liver / Total Radioactivity, Lung / Total Radioactivity, Skeletal Muscle / Total Radioactivity, Spleen / Total Radioactivity, Thymus / Total Radioactivity, Thyroid Gland / Total Radioactivity, Whole Brain: single oral 12.5 mg/kg [14C]
Method: Supplementary file pone.0331768.s021.docx: S4 Table Tissue distribution of Kylo-0603. The detailed experimental design and results are as follows: After a single oral administration of 12.5 mg/200 μCi/kg [^14C] Kylo-0603 to SD rats (n = 6, 3 males and 3 females per group), the compound in tissues were detected by semi-quantitive radioactivities from 0 to 168 hours. […] For the tissue distribution study, the same dosing regimen was used to measure the amount of radioactivity in various tissues at 0.083, 0.25, 1, 4 and 24 hours (n = 6; three females and three males at each time point). […] Very low levels were found in the spleen, kidney, lung and adipose tissue. Concentrations in bone, the thyroid gland, the thymus gland, the heart, skeletal muscle and the whole brain were all below the limit of detection. […] (DOCX)

[2] = PK study: plasma and liver concentrations after PO dosing in rats; details: single dose 7.03 mg/kg PO, fasted male SD rats, 0.25 h
[3] = target: T1, human THR-β (Homo sapiens, UniProt P10828); test: LanthaScreen TR-FRET THRβ coactivator assay; assay type: biochemical; details: normalized for the relative selectivity of T3
T1 construct: purchased Thermo Fisher Scientific PV4687
Method: (§1) In conducting experiments to ascertain the agonist effects of compounds on human THR-α or THR-β, the following equipment and reagents were utilized: The experimental apparatus comprised an Envision instrument (provided by PerkinElmer, model Envision 2014) and an Echo 500 instrument from Labcyte, USA. The experimental reagents used were the LanthaScreen™ TR-FRET THRα/THRβ Coactivator Detection Kit (model PV4687) from Thermo Fisher Scientific. […] Subsequently, 100 nL of the diluted compounds were transferred to a 384-well experimental plate (384 Optiplate), with one compound well designated for each concentration. The experimental procedure was conducted by the instructions provided in the LanthaScreen™ TR-FRET TRα/TRβ Coactivator Assay Kit. To ensure the accuracy and reliability of the data, each experiment was repeated three times. EC50 values were determined by using GraphPad Prism 8.5 (the Dose-response-Stimulation-log[effect] vs. response--Variable slope). Finally, to assess the selectivity of the compounds, we calculated the selectivity multiplicity.

[4] = target: T2, human THR-α (Homo sapiens, UniProt P10827); test: LanthaScreen TR-FRET THRα coactivator assay; assay type: biochemical
T2 construct: purchased Thermo Fisher Scientific PV4687
Method: as §1

[5] = single oral 12.5 mg/200 μCi/kg [14C] Kylo-0603, 0 to 168 hours

CC(=O)N[C@H]1[C@H](OCCCCCCNC(=O)CCOCC(COCCC(=O)NCCCCCCO[C@@H]2O[C@H](CO)[C@H](O)[C@H](O)[C@H]2NC(C)=O)(COCCC(=O)NCCCCCCO[C@@H]2O[C@H](CO)[C@H](O)[C@H](O)[C@H]2NC(C)=O)NC(=O)CCCCCNC(=O)COc2cc(C)c(Cc3ccc(O)c(C(C)C)c3)c(C)c2)O[C@H](CO)[C@H](O)[C@@H]1O [Kylo-0603]
0.05%: radioactivity excreted in urine [1, 5]
94.2%: radioactivity excreted via feces [1, 5]
BLQ: Total Radioactivity, Fat ([1]; 0.083 h) | Total Radioactivity, Heart ([1]; 0.083 h) | Total Radioactivity, Kidney ([1]; 0.083 h) | Total Radioactivity, Liver ([1]; 0.083 h) | Total Radioactivity, Skeletal Muscle ([1]; 0.083 h) | Total Radioactivity, Spleen ([1]; 0.083 h) | Total Radioactivity, Thymus ([1]; 0.083 h) | Total Radioactivity, Thyroid Gland ([1]; 0.083 h) | Total Radioactivity, Whole Brain ([1]; 0.083 h) | Total Radioactivity, Heart ([1]; 0.25h) | Total Radioactivity, Kidney ([1]; 0.25h) | Total Radioactivity, Lung ([1]; 0.25h) | Total Radioactivity, Skeletal Muscle ([1]; 0.25h) | Total Radioactivity, Thymus ([1]; 0.25h) | Total Radioactivity, Thyroid Gland ([1]; 0.25h) | Total Radioactivity, Whole Brain ([1]; 0.25h) | Total Radioactivity, Heart ([1]; 1h) | Total Radioactivity, Lung ([1]; 1h) | Total Radioactivity, Skeletal Muscle ([1]; 1h) | Total Radioactivity, Thymus ([1]; 1h) | Total Radioactivity, Thyroid Gland ([1]; 1h) | Total Radioactivity, Whole Brain ([1]; 1h) | Total Radioactivity, Fat ([1]; 4h) | Total Radioactivity, Heart ([1]; 4h) | Total Radioactivity, Kidney ([1]; 4h) | Total Radioactivity, Liver ([1]; 4h) | Total Radioactivity, Lung ([1]; 4h) | Total Radioactivity, Skeletal Muscle ([1]; 4h) | Total Radioactivity, Spleen ([1]; 4h) | Total Radioactivity, Thymus ([1]; 4h) | Total Radioactivity, Thyroid Gland ([1]; 4h) | Total Radioactivity, Whole Brain ([1]; 4h) | Total Radioactivity, Fat ([1]; 8h) | Total Radioactivity, Heart ([1]; 8h) | Total Radioactivity, Kidney ([1]; 8h) | Total Radioactivity, Liver ([1]; 8h) | Total Radioactivity, Lung ([1]; 8h) | Total Radioactivity, Skeletal Muscle ([1]; 8h) | Total Radioactivity, Spleen ([1]; 8h) | Total Radioactivity, Thymus ([1]; 8h) | Total Radioactivity, Thyroid Gland ([1]; 8h) | Total Radioactivity, Whole Brain ([1]; 8h) | Total Radioactivity, Fat ([1]; 24h) | Total Radioactivity, Heart ([1]; 24h) | Total Radioactivity, Kidney ([1]; 24h) | Total Radioactivity, Liver ([1]; 24h) | Total Radioactivity, Lung ([1]; 24h) | Total Radioactivity, Skeletal Muscle ([1]; 24h) | Total Radioactivity, Spleen ([1]; 24h) | Total Radioactivity, Thymus ([1]; 24h) | Total Radioactivity, Thyroid Gland ([1]; 24h) | Total Radioactivity, Whole Brain ([1]; 24h)
2.41±2.3 ngEq/g: Total Radioactivity, Fat ([1]; 1h)
3.49±4.7 ngEq/g: Total Radioactivity, Fat ([1]; 0.25h)
41.2±1.89 ngEq/g: Total Radioactivity, Spleen ([1]; 1h)
124 ± 13.9 nM: EC50 [4]
141±50.5 ngEq/g: Total Radioactivity, Liver ([1]; 0.25h)
413±24.8 ngEq/g: Total Radioactivity, Liver ([1]; 1h)
0.0128 ng/mL: plasma concentration [2]
20.5±3.07 ngEq/g: Total Radioactivity, Spleen ([1]; 0.25h)
8.2 fold: relative selectivity for THR-β over THR-α [3]
66167 pg/g: liver concentration [2]
23.91±3.5 ngEq/g: Total Radioactivity, Lung ([1]; 0.083 h)
